Test results as given in patent publication US20250145963A1, “Improved Differentiation Method” (Koninklijke Nederlandse Akademie Van Wetenschappen, priority 2016, published 2025).

Tests used:
intestinal organoids = assay: Marker analysis of EECs (CHGA) and Paneth cells (LYZ) in treated organoids; type: cell-based, mouse; conditions: 4 days treatment
Lgr5+ stem cells = assay: RNA sequencing of FACS-isolated active and quiescent Lgr5+ stem cells
glucocorticoid receptor = biological target: T1, glucocorticoid receptor (Homo sapiens, UniProt P04150); conditions: oral dosing; in comparison to cortisol; cited from earlier work
T1 sequence (P04150 1-777): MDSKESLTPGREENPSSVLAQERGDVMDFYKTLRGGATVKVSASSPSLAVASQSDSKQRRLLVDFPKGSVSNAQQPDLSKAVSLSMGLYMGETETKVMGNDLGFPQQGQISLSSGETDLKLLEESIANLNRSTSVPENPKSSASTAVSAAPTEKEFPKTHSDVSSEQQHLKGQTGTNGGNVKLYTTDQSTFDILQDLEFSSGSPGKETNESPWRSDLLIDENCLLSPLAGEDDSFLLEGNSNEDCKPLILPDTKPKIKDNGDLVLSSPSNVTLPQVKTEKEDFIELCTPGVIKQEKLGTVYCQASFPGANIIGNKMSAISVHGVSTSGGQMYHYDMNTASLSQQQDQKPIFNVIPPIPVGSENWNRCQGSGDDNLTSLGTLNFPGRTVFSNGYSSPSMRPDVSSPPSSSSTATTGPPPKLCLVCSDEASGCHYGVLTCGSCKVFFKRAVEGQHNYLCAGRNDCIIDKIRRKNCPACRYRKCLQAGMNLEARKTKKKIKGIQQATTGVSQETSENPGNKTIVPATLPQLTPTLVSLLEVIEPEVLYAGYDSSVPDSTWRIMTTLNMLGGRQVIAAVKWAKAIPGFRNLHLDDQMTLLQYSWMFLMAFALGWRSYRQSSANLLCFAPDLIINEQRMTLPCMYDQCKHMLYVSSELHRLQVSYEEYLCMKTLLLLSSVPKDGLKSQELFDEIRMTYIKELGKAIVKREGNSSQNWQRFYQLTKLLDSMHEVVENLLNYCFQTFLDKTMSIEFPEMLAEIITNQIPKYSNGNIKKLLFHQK

For `COc1cc2ncnc(Nc3ccc(F)c(Cl)c3)c2cc1OCCCN1CCOCC1` [Gefitinib], the “secretory cell differentiation (EEC, Paneth, Goblet cell numbers)” value (intestinal organoids) was “inhibited Goblet cell differentiation, but spared Paneth cells and EECs”, the “Etv5 down-regulation in quiescent Lgr5+ stem cells” value (Lgr5+ stem cells; d4, p-adj<0.001) was 7.7 × and the “Ccnb1 decrease in quiescent Lgr5+ stem cells” value (Lgr5+ stem cells; d4, p-adj<0.005) was 2.1 ×. For the same compound, the “Rnf43 increase in quiescent Lgr5+ stem cells” value (Lgr5+ stem cells; d4, p-adj<0.005) was 2.3 ×, the “Ccnb2 decrease in quiescent Lgr5+ stem cells” value (Lgr5+ stem cells; d4, p-adj<0.05) was 1.9 × and the “Dclk1 increase in quiescent Lgr5 cells” value (Lgr5+ stem cells; d4, p-adj<0.05) was 6 ×. For the same compound, the “Chga higher in quiescent compared to active Lgr5+ stem cells” value (Lgr5+ stem cells; d4, p-val=0.019, padj=0.28) was 7.3 fold and the “Lgr5 increase in quiescent Lgr5+ stem cells” value (Lgr5+ stem cells; d4, padj<0.05) was 2 ×.
In the case of `C[C@H](NC(=O)Cc1cc(F)cc(F)c1)C(=O)N[C@H](C(=O)OC(C)(C)C)c1ccccc1` [DAPT], the “secretory cell differentiation (EEC, Paneth, Goblet cell numbers)” value (intestinal organoids) is reported as “large increase in the number of LYZ+ Paneth cells”.
In the case of `C[C@]12C=CC(=O)C=C1CC[C@H]1[C@@H]3C[C@@H](O)[C@](O)(C(=O)CO)[C@@]3(C)C[C@H](O)[C@@]12F` [Triamcinolone], the Glucocorticoid potency (glucocorticoid receptor) is given as 5.
For `C[C@]12C=CC(=O)C=C1CC[C@@H]1[C@@H]2[C@@H](O)C[C@@]2(C)[C@H]1CC[C@]2(O)C(=O)CO` [Prednisolone], the Glucocorticoid potency (glucocorticoid receptor) is given as 4.
In the case of `C[C@]12CCC(=O)C=C1CC[C@@H]1[C@@H]2C(=O)C[C@@]2(C)[C@H]1CC[C@]2(O)C(=O)CO` [Cortisone], the Glucocorticoid potency (glucocorticoid receptor) is given as 0.8.
For `C[C@]12CCC(=O)C=C1CC[C@@H]1[C@@H]2[C@@H](O)C[C@@]2(C)[C@H]1CC[C@]2(O)C(=O)CO` [Cortisol (hydrocortisone), Cortisol], the Glucocorticoid potency (glucocorticoid receptor) is given as 1.
